# Some of the results follow. Single values are uncertain, as repeats are few or missing.
# System: A2058
# Assay: cell count relative to DMSO control; melanoma cells; higher = more viable cells
# Details: library dose: low library concentration; 72 h
# 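Further: cell number obtained by counting DAPI-stained nuclei in high-throughput microscope images with image analysis software, screen run in 1,536-well plates.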
row,SMILES,cell count [%]
1,"O=C(/C=C/c1cccnc1)NCCCCC1CCN(C(=O)c2ccccc2)CC1 + O=C(O)[C@@H]1[O][Sb](=[O])([O][Sb]2(=[O])[O][C@H]([C@H](O)CO)[C@H](O)[C@H](C(=O)O)[O]2)[O][C@H]([C@H](O)CO)[C@@H]1O [stibogluconate] (first compound 0.01 µM, partner dose 2 µM)",115
2,"Cc1ccc(Nc2nccc(N(C)c3ccc4c(C)n(C)nc4c3)n2)cc1S(N)(=O)=O [Pazopanib] + OCCn1cc(-c2cnc3nnn(Cc4ccc5ncccc5c4)c3n2)cn1 [PF04217903] (first compound 0.4 µM, partner dose 1 µM)",104
3,"Cc1ccc(Nc2nccc(N(C)c3ccc4c(C)n(C)nc4c3)n2)cc1S(N)(=O)=O [Pazopanib] + NCC(=O)Nc1ccc(-n2nc(C(F)(F)F)cc2-c2ccc3c(ccc4ccccc43)c2)cc1 [OSU03012] (first compound 0.4 µM, partner dose 1 µM)",104
4,"CC1(C)CCC(c2ccc(Cl)cc2)=C(CN2CCN(c3ccc(C(=O)NS(=O)(=O)c4ccc(N[C@H](CCN5CCOCC5)CSc5ccccc5)c(S(=O)(=O)C(F)(F)F)c4)cc3)CC2)C1 + OCc1c[nH]c2ccccc12 [Indole-3-carbinol] (first compound 0.4 µM, partner dose 0.8 µM)",89.4
5,"O=C(/C=C/c1cccnc1)NCCCCC1CCN(C(=O)c2ccccc2)CC1 + C[C@@H](N)c1ccc(C(=O)Nc2ccnc3[nH]ccc23)cc1 [RKI983] (first compound 0.01 µM, partner dose 0.4 µM)",81.1
